Values marked as one replicate rest on one cluster of the flow cell; about a third of the high ones do not repeat.
Tested on: ATP
Assay: switch fluorescence ratio, 500 uM ATP over buffer (Cy3 cluster intensity, sum of 5 cycles each) (fold (ratio)); higher = stronger signal-on switching upon ATP binding; sequences stand for … in TCGTCGGCAGCGTCAGATGTGTATAAGAGACAGTTTTTTTTTTTTTTTTTTTTTTTTT…TC
Details: aptamer strand: ATP DNA aptamer (quencher-CACCTGGGGGAGTATTGCGGAGGAAGG + anchor), 100 nM annealed; ATP concentration: 500 uM; one replicate
Outline: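 Five buffer/ATP imaging cycles were run on Cy3-labelled switching-strand clusters on a modified Illumina MiSeq flow-cell, with NaOH stripping and re-annealing between cycles. In each cycle, clusters annealed to 100 nM quencher-labelled ATP aptamer were imaged in selection buffer, then after 15 min with 500 uM ATP at 22 °C. Per cluster, the fluorescence ratio is summed target-cycle over summed buffer-cycle Cy3 intensity, averaged per switch-domain sequence. Only clusters within 100-1000 RFU were kept.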
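Further: ATP exposure 15 min at 22 °C before imaging.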

Row | Sequence | switch fluorescence ratio
1 | TCGGCAGGTG | 2.52
2 | TCGGCATTTA | 1.04
3 | TCGGCCAATC | 2.02
4 | TCGGCCGCCA | 1.39
5 | TCGGCGCCGA | 1.06
6 | TCGGCGTCAA | 1.51
7 | TCGGCGTGAC | 1.09
8 | TCGGCTAGGA | 0.986
9 | TCGGCTGGAG | 0.959
10 | TCGGGAAGTA | 0.968
11 | TCGGGACTAA | 0.976
12 | TCGGGCATGA | 1.02
13 | TCGGGCTCAT | 0.965
14 | TCGGGCTTAT | 1.02
15 | TCGGGGAAAA | 0.947
16 | TCGGGTACG | 1.01
17 | TCGGGTCT | 0.983
18 | TCGGGTGTGC | 0.956
19 | TCGGGTTACT | 0.998
20 | TCGGGTTCAC | 1.02
21 | TCGGGTTCTA | 1.03
22 | TCGGTAAGTC | 0.98
23 | TCGGTACGTC | 0.949
24 | TCGGTATGGA | 1.02
25 | TCGGTCAACA | 0.969
26 | TCGGTCCCAA | 1.07

Row | Sequence | switch fluorescence ratio
27 | TCGGTCCCGT | 1.01
28 | TCGGTGCATG | 1.04
29 | TCGGTGCGTA | 1.04
30 | TCGGTGTGC | 0.989
31 | TCGGTTAATC | 1.02
32 | TCGGTTGAGC | 1.02
33 | TCGGTTTGTA | 1.04
34 | TCGTAAAGTG | 0.964
35 | TCGTAACGTA | 1.04
36 | TCGTACCTTC | 1.29
37 | TCGTAGCAGA | 3.35
38 | TCGTAGCCTA | 1.08
39 | TCGTAGTTTT | 0.983
40 | TCGTATGGGA | 0.96
41 | TCGTATTGTT | 0.951
42 | TCGTATTTCA | 0.989
43 | TCGTCACCGG | 1.04
44 | TCGTCATTGG | 1.01
45 | TCGTCATTGT | 0.964
46 | TCGTCCTTTC | 1.27
47 | TCGTCGAATG | 1.02
48 | TCGTCTAGA | 1.01
49 | TCGTCTATTA | 1.04
50 | TCGTGAAACA | 0.995
51 | TCGTGAGGAA | 1
52 | TCGTGGAGCG | 0.949

Row | Sequence | switch fluorescence ratio
53 | TCGTGGTAGG | 1.04
54 | TCGTGGTATG | 1
55 | TCGTGTCTCA | 1.02
56 | TCGTGTGCCG | 1.07
57 | TCGTGTTAAT | 0.985
58 | TCGTGTTGAC | 0.995
59 | TCGTTACCAA | 0.993
60 | TCGTTACTTT | 1.04
61 | TCGTTAGTTG | 0.968
62 | TCGTTATCGT | 0.999
63 | TCGTTCAGAG | 1
64 | TCGTTGAGAT | 1.04
65 | TCGTTGATCG | 1.02
66 | TCGTTGCTAT | 1.02
67 | TCGTTGGGTC | 0.987
68 | TCGTTGTAGT | 1.01
69 | TCGTTTCCCG | 1.01
70 | TCGTTTTACG | 1.03
71 | TCTAAACGTG | 0.92
72 | TCTAAAGA | 0.986
73 | TCTAACAAGT | 0.946
74 | TCTAAGTCTG | 1.03
75 | TCTACAACCG | 1.07
76 | TCTACCCTAT | 1.05
77 | TCTACGTTAC | 2.5
78 | TCTACTTTGT | 0.977

Row | Sequence | switch fluorescence ratio
79 | TCTAGCGGAT | 0.956
80 | TCTAGCTGAC | 1.55
81 | TCTAGGGAAA | 0.984
82 | TCTAGGTGC | 3.33
83 | TCTAGTAGGT | 0.994
84 | TCTATCATTC | 1.05
85 | TCTATGGAGT | 0.992
86 | TCTATTCATC | 0.999
87 | TCTATTCCCC | 0.965
88 | TCTCAACCCT | 1.09
89 | TCTCAGAGCT | 1.04
90 | TCTCAGGCT | 1.03
91 | TCTCAGGTGA | 0.981
92 | TCTCAGTGCG | 0.999
93 | TCTCAGTTTT | 1
94 | TCTCATGGGG | 1.01
95 | TCTCCAAGAT | 2.5
96 | TCTCCACTGC | 2.39
97 | TCTCCCGATA | 1.89
98 | TCTCCGTTT | 1.69
99 | TCTCCTAATG | 1.11
100 | TCTCGACGGA | 1.02
101 | TCTCGGATTG | 0.993

— the supplement of paper PMC10126150
